# Laboratory results from patent publication US7826982B2, “Method of identifying inhibitors using a 3-D structure of RAC-1 GTPASE” (Children's Hospital Medical Center, priority 2005, dated 2010).
# Tests used:
# [1] = target: T1, RhoA binding to PDZ-RhoGEF (Homo sapiens, UniProt P61586); experiment: RhoA - PDZ-RhoGEF affinity precipitation; details: varying concentrations
# T1 construct: made in house; host or cells: PDZ-RhoGEF expressed in Cos-7 cells (lysate used)
# Method: Trio and Tiam-1 co-precipitate with GST-Rac1, but not GST or GST-Cdc42.
# In FIG. 2A, 0.5 μg of (His)6-tagged TrioN was incubated with GST alone or nucleotide-free, GST-fused Cdc42 or Rac1 (2 μg) in the binding buffer containing different concentrations of NSC23766 and 10 μl suspended glutathione-agarose. After an incubation at 4° C. for 30 minutes, the beads associated (His)6-TrioN were detected by anti-His Western blotting. The blots were quantified by densitometry analysis. The results are representative of three measurements. In FIG. 2B, myc-tagged Tiam1 expressed in Cos-7 cell lysates were incubated with (His)6-Rac1 in the presence of increasing concentrations of NSC23766. The association of Rac1 with Tiam1 was examined by anti-His blot after anti-myc immunoprecipitation. In FIG. 2C, the AU-tagged PDZ-RhoGEF was expressed in Cos-7 lysates and incubated with GST or GST-RhoA in the presence of varying concentrations of NSC23766. The RhoA associated PDZ-RhoGEF was probed with anti-AU antibody after affinity precipitation by glutathione agarose beads. In FIG. 2D, (His)6-Rac1 loaded with GTP γ S was incubated with GST-BcrGAP or GST-PAK1 (PBD) in the presence or absence of 200 μM NSC23766 and the interaction with GSTBcrGAP or GST-PAK1 was probed by anti-His blot after affinity precipitation by glutathione agarose beads.
# PC-3 cells [2] = experiment: PC-3 proliferation, CellTiter 96 AQueous assay; details: 5% serum, indicated concentrations
# [3] = tested on: GEF expressing NIH 3T3 cells; experiment: Cell growth assay, GEF-transfected NIH 3T3; type: cell-based; details: 100 μM; 5% serum
# Method: (§1) The cells were split in triplicate in 6-well plates at a density of 5×10^4 cells per well. The GTP-bound L61Rac1 and endogenous Rac1 of the L61Rac1-expressing cells were probed by GST-PAK1 pull-down after 12 hour treatment with increasing concentrations of NSC23766. […] In FIG. 5C, GST, L61Rac1, or Tiam1 transfected cells were treated with 50 μM NSC23766 every two days. The foci numbers of the respective cells were quantified 14 days after transfection. […] The number and the morphology of the colonies were examined under a microscope.
# PC-3 cells [4] = experiment: Matrigel cell invasion assay; details: 25 μM, 24 hrs
# [5] = tested on: L61Rac1 expressing NIH 3T3 cells; experiment: Cell growth assay, L61Rac1 expressing NIH 3T3; type: cell-based; details: 100 μM; 5% serum
# Method: as §1
# [6] = tested on: L61Rac1 or Tiam1 transfected NIH 3T3 cells; experiment: Foci formation and soft-agar growth of transfected NIH 3T3 cells; type: cell-based; details: 50 μM (foci, 14 days) or 100 μM (soft agar, 14 days)
# Method: as §1
# [7] = target: PDZ-RhoGEF-stimulated mantGDP/GTP exchange of RhoA (Homo sapiens, UniProt P61586); experiment: In vitro guanine nucleotide exchange assay (mant-GDP), RhoA with PDZ-RhoGEF; type: biochemical; details: 200 μM NSC23766
# Method: In vitro guanine nucleotide exchange assay. For these, 200 nM Rac1 loaded with mant-GDP is incubated at 25° C. in an exchange buffer containing 100 mM NaCl, 5 mM MgCl2, 50 mM Tris-HCl (pH 7.6), and 0.5 mM GTP in the absence or presence of 200 nM Trio. The mant-GDP fluorescence changes in the course of the exchange reactions are monitored with an excitation wavelength at 360 nm and the emission wavelength at 440 nm by a Cary Ellipse fluorescence spectrometer (Varian, Inc.).
# In FIG. 3. […] In FIG. 3A, NSC23766 inhibited TrioN catalyzed GDP/GTP exchange of Rac1 in a dose dependent manner. 200 nM Rac1 loaded with mant-GDP was incubated at 25° C. in an exchange buffer containing 100 mM NaCl, 5 mM MgCl2, 50 mM Tris-HCl (PH 7.6), and 0.5 mM GTP in the absence (top line) or presence of 100 nM TrioN. Increasing concentrations of NSC23766 were included in the exchange buffer as indicated. In FIG. 3B, NSC23766 had no effect on the Intersectin-stimulated GDP/GTP exchange of Cdc42. 200 nM Cdc42 loaded with mant-GDP was incubated in the exchange buffer in the absence (top line) or presence of 100 nM Intersectin with or without 200 μM NSC23766. In FIG. 3C, the exchange reaction of RhoA catalyzed by PDZ-RhoGEF was carried out similarly in the presence or absence of 200 μM NSC23766.
# wild type NIH 3T3 cells = experiment: Cell growth assay, wild type NIH 3T3; type: cell-based; details: 100 μM; 5% serum
# Method: as §1
# PC-3 cells [8] = experiment: Anchorage independent growth in soft agar; details: for colony forming activity (anchorage independent growth) of PC-3 cells: different doses
# T1 sequence (P61586 whole entry): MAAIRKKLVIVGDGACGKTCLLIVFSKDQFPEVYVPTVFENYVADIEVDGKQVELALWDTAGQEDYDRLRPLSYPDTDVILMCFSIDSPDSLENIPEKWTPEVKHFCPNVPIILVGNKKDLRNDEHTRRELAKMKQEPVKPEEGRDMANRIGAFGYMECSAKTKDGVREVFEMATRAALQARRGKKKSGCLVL
compound,measurement,setting,value
"CCN(CC)CCCC(C)Nc1nc(C)cc(Nc2ccc3nc(C)cc(N)c3c2)n1 (stereo not drawn) [compound 23766, N6-(2-((4-(diethylamino)-1-methylbutyl)amino)-6-methyl-4-pyrimidinyl)-2-methyl-4,6-quinolinediamine]",effect on RhoA binding to PDZ-RhoGEF,[1],does not interfere
same,proliferation of PC-3 cells,PC-3 cells [2],inhibited by compound 23766 in a dose dependent manner
same,proliferation of PC-3 cells,PC-3 cells [2]; listed as NSC23766,inhibited
same,cell growth induced by the Rac specific GEF Trio,[3],capable of inhibiting
same,cell growth stimulated by the Cdc42-specific GEF Intersectin,[3],not
same,cell growth stimulated by the Rho-specific GEF Lbc,[3],not
same,cell growth stimulated by the multiple Rho protein-activating GEF Vav,[3],not
same,PC-3 cell invasion,PC-3 cells [4],significantly inhibits
same,PC-3 cell invasion,PC-3 cells [4]; listed as NSC23766,inhibited
same,growth rate of Rac1L61 expressing cells,[5],no effect
same,Rac GEF stimulated cell growth and transformation,[6],specifically inhibited
same,effect on PDZ-RhoGEF-stimulated mantGDP/GTP exchange of RhoA,[7],little impact
same,growth of wild type NIH 3T3 cells,wild type NIH 3T3 cells,slow the growth
same,colony-forming activity remaining,"PC-3 cells [8]; 25 μM, PC-3 cells",Approximately 10%
same,colony-forming activity remaining,"PC-3 cells [8]; 50 μM, PC-3 cells",~1%
same,size of colonies of treated cells versus untreated,PC-3 cells [8]; PC-3 cells,much smaller
same,colony forming activity (anchorage independent growth) of PC-3 cells,PC-3 cells [8],efficiently blocks
same,colony forming activity (anchorage independent growth) of PC-3 cells,PC-3 cells [8]; listed as NSC23766,inhibited
